According to the BET-seq Pho4 binding data (Le et al. 2018):
The other results are listed elsewhere or left out. These are noisy estimates, calculated here from bound and input reads.

Each sequence was assayed against T1, Pho4 (S. cerevisiae) (UniProt P07270) (assay: relative binding free energy (BET-seq); higher = weaker binding). Settings: reference: library average.
T1 sequence: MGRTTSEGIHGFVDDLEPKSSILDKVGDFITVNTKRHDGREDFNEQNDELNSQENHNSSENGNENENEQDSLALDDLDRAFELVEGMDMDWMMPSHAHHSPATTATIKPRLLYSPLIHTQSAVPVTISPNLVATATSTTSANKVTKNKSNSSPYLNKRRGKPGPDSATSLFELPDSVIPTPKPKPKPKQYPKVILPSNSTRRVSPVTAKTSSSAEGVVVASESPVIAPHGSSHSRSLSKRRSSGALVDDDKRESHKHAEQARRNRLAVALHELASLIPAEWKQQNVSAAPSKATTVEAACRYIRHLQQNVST

| Sequence | relative binding free energy [kcal/mol] |
| --- | --- |
| TGTGTCACGTGAGGGG | 0.3 |
| TAGAGCACGTGAATGA | 0.24 |
| GGTTACACGTGGCAGT | 0.01 |
| ACGTTCACGTGGGTGG | 0.2 |
| TCAGTCACGTGTATTG | -0.04 |
| TTGTTCACGTGTGCCT | 0.2 |
| TATGACACGTGTTTTA | -0.23 |
| GTGGACACGTGGTAGT | -0.04 |
| TCAAGCACGTGGGATG | -0.18 |
| CTTTTCACGTGGTTGG | 0.27 |
| AGGTTCACGTGTTTGT | 0.19 |
| GTGAACACGTGTGGAT | 0.08 |
| GGGGGCACGTGCAAAG | -0.11 |
| TATAGCACGTGCTTTG | -0.18 |
| GTTTTCACGTGGGATG | 0.33 |
| AAATGCACGTGTGGCT | -0.08 |
| AGAGTCACGTGTTATG | 0.13 |
| GCTTTCACGTGTGTAA | 0.25 |
| TGGAGCACGTGGATCG | -0.05 |
| TAGTTCACGTGTGGGC | 0.28 |
| TTGGTCACGTGTAGTA | 0.13 |
| ATTTACACGTGTACGG | 0.2 |
| AGGTCCACGTGCGCGG | 0.01 |
| CTGGTCACGTGTTATT | 0.22 |
| GTATACACGTGGGCAG | -0.04 |
| TGGGGCACGTGAGCAG | 0.02 |
| ATCGGCACGTGGGGCA | -0.21 |
| TCGGACACGTGAGGTT | 0.45 |
| TTGTTCACGTGAGACG | 0.52 |
| AGGATCACGTGCGTAT | 0.18 |
